The supplement of paper PMC10126150
Values marked as one replicate rest on one cluster of the flow cell; about a third of the high ones do not repeat.

tested on: ATP; test: switch fluorescence ratio, 500 uM ATP over buffer (Cy3 cluster intensity, sum of 5 cycles each) (fold (ratio)); higher = stronger signal-on switching upon ATP binding; sequences stand for … in TCGTCGGCAGCGTCAGATGTGTATAAGAGACAGTTTTTTTTTTTTTTTTTTTTTTTTT…TC; conditions: aptamer strand: ATP DNA aptamer (quencher-CACCTGGGGGAGTATTGCGGAGGAAGG + anchor), 100 nM annealed; ATP concentration: 500 uM; one replicate
Outline: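 Between each of five buffer/ATP cycles, the flow-cell was stripped with NaOH and re-annealed. Each cycle imaged Cy3-labelled switching-strand clusters, annealed to 100 nM quencher-labelled ATP aptamer on a modified Illumina MiSeq flow-cell, first in selection buffer and then after 15 min with 500 uM ATP at 22 °C. The fluorescence ratio is summed target-cycle over summed buffer-cycle Cy3 intensity per cluster, averaged per switch-domain sequence, with clusters outside 100-1000 RFU excluded.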
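Also: ATP exposure 15 min at 22 °C before imaging.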

Row | Sequence | switch fluorescence ratio
1 | TGCTATTGGC | 1.02
2 | AGCTGCTTGG | 1.04
3 | ATAGCCCAGT | 1.01
4 | GCTTTGTGGG | 1
5 | TTTAAGTACA | 1.03
6 | GCTAAATCCC | 1.08
7 | GCATATATGT | 1.01
8 | GGATCGTACT | 1.05
9 | CGTCTGTTGC | 1.1
10 | GGGCAGGAAC | 0.979
11 | ATCGCCTAGA | 1
12 | TAGATTTTGG | 0.974
13 | TGGATCACAC | 1.01
14 | AAAGCCTTGT | 0.95
15 | TAAAAGACCA | 0.98
16 | CGAGTCGCGG | 0.987
17 | TTTTCCTCCG | 1.35
18 | GAAAGGATCG | 0.985
19 | GTTGTCGAT | 1.01
20 | ACAGCTTTCA | 0.997
21 | AGACAGATGC | 0.989
22 | AGCGAGAAAT | 1.01
23 | GCGGTCGCTA | 1.02
24 | TTGTAGACCA | 1.04
25 | ACGGGTGACG | 0.884

Row | Sequence | switch fluorescence ratio
26 | ATACGAAATG | 1.08
27 | TATTTTGGAT | 0.983
28 | CCGGAGTGTG | 1.88
29 | ATTTAGGAG | 1.01
30 | AATTGGATAA | 1.03
31 | AGCCTGATTG | 0.968
32 | ACGGTTGACT | 1.06
33 | AGTCACAGGC | 1.04
34 | GGGTTGCAAA | 0.983
35 | ACTGAAATAA | 1.02
36 | GATAGCCGAA | 1.01
37 | GCTACTATAG | 1
38 | GAGTACTGCT | 0.984
39 | TAACTCCTGG | 1
40 | TTATGCGGT | 1.01
41 | CCGTATTTTG | 1.05
42 | GGGTTATTGC | 0.977
43 | TCTCCGGCGT | 1.81
44 | CGCTTGCTAC | 2.69
45 | CTGGTTCATC | 0.984
46 | GGTGTGGTTC | 0.97
47 | CTGGGGTTCT | 1.03
48 | ACACATACGT | 1.54
49 | ATTTATGCCT | 1.06
50 | TTATTGGATT | 1.06

Row | Sequence | switch fluorescence ratio
51 | CACGTTTAAA | 1.01
52 | CTTTGCTGTA | 1.02
53 | GTGGCCCTTG | 0.953
54 | TCAGCTACAT | 1.04
55 | GAAAAACCAT | 0.994
56 | ATGGGCCTGA | 1.03
57 | ACATGGGTGT | 1.02
58 | TAAAATTAAA | 0.998
59 | CATGAGGAGA | 1.05
60 | GTGGTATTTC | 0.992
61 | TAGCTTCTCA | 1.03
62 | GAAGCGTCGG | 1.02
63 | GATTACGTTT | 0.998
64 | CGTCGGTGGC | 0.97
65 | AATTTTCTCT | 0.979
66 | ACCTTTGGGG | 1.21
67 | ATTGGCCTGT | 1
68 | TGCGGAAACT | 1.01
69 | ACACGTGCTC | 0.993
70 | CTTCATTCTT | 0.998
71 | GGTATGAATG | 0.997
72 | ACCCGATTGT | 1.03
73 | GTGACGATAT | 1.07
74 | CTGGGTAGTT | 0.997
75 | TTGTGTGCAT | 0.999

Row | Sequence | switch fluorescence ratio
76 | GCACAAGT | 0.981
77 | AGTTGAATAC | 1.17
78 | ATATGTTCGG | 1.01
79 | CATAATCTTG | 1.01
80 | CAACATATCT | 1.01
81 | AACGCGAGAT | 2.31
82 | AGTTAGTGCG | 0.993
83 | AAATTGTCCA | 0.985
84 | TAGCCAGCCA | 0.981
85 | TTTGATGCGG | 1.02
86 | AAGGAGAATC | 1.11
87 | CTTGTGGGAG | 1.02
88 | GCATTATGAG | 1.08
89 | GATCAAATTG | 0.98
90 | ATACATAAAC | 1.33
91 | CGCGGGAAAC | 1.06
92 | GCTGCAGGT | 1.12
93 | GCGTCATGGT | 0.989
94 | AAGGCGAAAC | 1.22
95 | AACTGGTGCG | 0.953
96 | ATGTGGCGCT | 1.06
97 | ATACTGAGTG | 0.993
98 | ATACCGATGG | 1.01
99 | GTTACCATT | 0.967
100 | TCTTCAAG | 1.02

Row | Sequence | switch fluorescence ratio
101 | CGAAGAATAG | 1.05
102 | TCCGGGACCC | 1.25
103 | GTATTAAATA | 0.948
104 | CGCTCCGACT | 1.1
105 | ACTAGCAGGG | 1.02
106 | TTCCTGGTAA | 1.05
107 | TAAGTCCCCG | 1.02
108 | TACCCGTCAA | 3.32
109 | ATAGGATATT | 0.981
110 | GAAGCTGCGG | 1.02
111 | ACTTGAACAG | 1.07
112 | AGTTCAGAGA | 0.971
113 | ACAGTTGCAT | 0.996
114 | TCGGTGGTGC | 1
115 | GCTCCGGCCG | 1.29
116 | CATGTACCGT | 1.06
117 | GCCGTATCA | 0.978
118 | AACAGCATGT | 1.04
119 | TGCCAGTTTT | 1
120 | TGATTTGTGT | 0.977
121 | GAACGCAAAT | 3.83
122 | TCTGTTCGTC | 1.01
123 | TAAAAAAGGC | 1.05
124 | TGTTGTACAG | 0.983
125 | GTACTATGCG | 0.997

Row | Sequence | switch fluorescence ratio
126 | GGGCCTCTGA | 1.03
127 | ACTTCTGACG | 1.95
128 | CCGGTACTC | 3.83
129 | GATTGTGGCC | 0.949
130 | AGGGGACAGA | 0.996
131 | GCGCGGGACT | 1.01
132 | CTTAATTCTT | 1.06
133 | AAGCCTACTG | 1.01
134 | AAAGTCGGGA | 1
135 | CAAATGTGCG | 0.98
136 | AGTCCGGTGG | 1.11
137 | TACGGAGTGC | 1.15
138 | ACATTATCAT | 1.01
139 | GGCATCCTC | 1.05
140 | AATACGACTC | 1.37
141 | ACATAGTATC | 1.01
142 | ACGTTAATGT | 1.1
143 | ATTTAAAGAG | 1.03
144 | ACCGATTGGG | 1.01
145 | TAGGAAAGAT | 1.04
146 | ATTAACCTA | 1.04
147 | TAAGGCAAGC | 1.16
148 | GGTATAACCG | 1.02
149 | CGTTGTAGGC | 1.15
150 | CATCGATGAG | 0.982

Row | Sequence | switch fluorescence ratio
151 | GAGTATTCGT | 0.993
152 | ATTTCCGCGA | 4.15
153 | GGTAATCTTG | 1.02
154 | AGGCTATCTG | 0.994
155 | AACGGATGCA | 1.04
156 | CGTCAAGAGT | 1.02
157 | GATTTGCGAG | 1.02
158 | CCGAATATTC | 1.48
159 | GTGGTCAAA | 0.987
160 | GTTCCGGCTA | 1.1
161 | ACTGCCCAAT | 1.13
162 | TATGGGGGCG | 0.951
163 | CATGACTTAA | 0.983
164 | GCTGTGCGTT | 1.03
165 | CATGGAGGGT | 0.976
166 | GGGTGACAAA | 1.02
167 | GTAATTGGGG | 0.949
168 | TAGGCGCCTC | 1.04
169 | CGATAATGGA | 0.987
170 | TCGGTGTAAT | 0.982
171 | TGTTTCAGCA | 1.01
172 | AGTTGATAAT | 0.969
173 | TCGGAGTAC | 1.36
174 | TTGCGATAGT | 1.06
175 | ATACGCCAGA | 1.09

Row | Sequence | switch fluorescence ratio
176 | CGTCGGTTTC | 1
177 | GTGATCATAA | 1.02
178 | GGTTTTTCCC | 1
179 | CTTGCCACAG | 1.02
180 | GCCAATTACC | 1.11
181 | TACTATATTA | 1.06
182 | CGCAAAAATA | 1.03
183 | CTACCTCGAT | 1.02
184 | CGAGGCTGCT | 1.08
185 | CCTATATGG | 0.967
186 | GAAGTCCC | 0.929
187 | CATAGCCCAC | 1.18
188 | TAGCCGAGAG | 0.999
189 | TCCATTTTCT | 0.968
190 | AGGTTACCTG | 1.03
191 | TACTTCCACG | 1.4
192 | AAGGTTGTAT | 0.997
193 | TAAGTCTAAC | 0.962
194 | TTGGTTCAAC | 0.967
195 | AATAATGCAT | 1.06
196 | TAGGTAACTG | 1.06
197 | GACTCATGGT | 1.02
198 | TGCTCGCTGA | 1.07
199 | GGCAGGTATG | 0.994
200 | ACCTAGGGGT | 1.01
